Drawing on PubChem BioAssay AID488969 (Vanderbilt High Throughput Screening Facility, 2010), this text covers z-score for 107 compounds.

The full ranking holds about 110,000 compounds; the median of “z-score” is about -0.1, and the highest 2% start at about 2. The list shows a part of the results. The source made the active and inactive calls.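 How the source made its calls: active means z-score in the third read window above 3 or below -3; inactive means the rest.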

For this assay, the target named is Metabotropic glutamate receptor 8 (Rattus norvegicus) (UniProt P70579). Briefly: rat mGluR8 modulators via GIRK flux, primary screen, cell-based, thallium flux, HTS (AID 488969). The note with it: HEK293 rat mGluR8, GIRK (G protein-gated inwardly rectifying potassium channel) thallium flux, FluoZin2; at 10 µM; stronger effect = higher value.
UniProt P70579, sequence (P70579 whole entry, looked up): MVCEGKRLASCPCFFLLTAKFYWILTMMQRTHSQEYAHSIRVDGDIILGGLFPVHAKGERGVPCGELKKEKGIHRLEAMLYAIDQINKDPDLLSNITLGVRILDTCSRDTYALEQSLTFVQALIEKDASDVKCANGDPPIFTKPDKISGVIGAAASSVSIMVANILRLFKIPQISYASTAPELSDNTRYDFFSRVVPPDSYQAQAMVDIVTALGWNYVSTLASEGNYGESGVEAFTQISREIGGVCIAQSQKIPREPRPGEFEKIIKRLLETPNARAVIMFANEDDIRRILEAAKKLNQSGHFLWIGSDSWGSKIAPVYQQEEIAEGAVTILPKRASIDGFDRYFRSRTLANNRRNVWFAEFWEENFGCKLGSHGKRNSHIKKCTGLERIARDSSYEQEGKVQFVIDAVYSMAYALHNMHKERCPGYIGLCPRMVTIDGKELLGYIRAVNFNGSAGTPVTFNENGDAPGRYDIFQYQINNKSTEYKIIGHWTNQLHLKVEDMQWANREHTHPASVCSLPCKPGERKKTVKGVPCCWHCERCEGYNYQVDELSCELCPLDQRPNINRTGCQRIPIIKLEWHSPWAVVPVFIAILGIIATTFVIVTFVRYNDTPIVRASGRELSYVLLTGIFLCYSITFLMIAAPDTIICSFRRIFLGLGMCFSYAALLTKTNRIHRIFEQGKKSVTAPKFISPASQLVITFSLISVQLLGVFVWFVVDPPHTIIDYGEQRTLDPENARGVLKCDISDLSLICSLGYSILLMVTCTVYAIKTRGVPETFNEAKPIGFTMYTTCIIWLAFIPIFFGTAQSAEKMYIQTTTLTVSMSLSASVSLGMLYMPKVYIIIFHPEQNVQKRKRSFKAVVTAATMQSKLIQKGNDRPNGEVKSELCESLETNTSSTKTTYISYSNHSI
Consider `O=C1C2(c3ccccc3)CN3CN(C2)CC1(c1ccccc1)C3`, for which the z-score is -0.161. Regarding `CCCCn1c(N)c(C(=O)NCc2cccs2)c2nc3ccccc3nc21`, the z-score is -0.414. Regarding `CNC(=O)Oc1ccc(-c2cn3cc(C)ccc3n2)cc1`, the z-score was -0.0606. The compound `CCN(CC)c1ccc(N=Cc2c(O)n(Cc3ccccc3)c(=O)[nH]c2=O)cc1` came in with a z-score of 0.207. `Nc1c(C(=O)NCc2ccco2)c2nc3ccccc3nc2n1Cc1ccc(F)cc1` had a z-score of -0.108. `O=C(COc1ccc2ccccc2c1)N1CCN(C2CCN(Cc3ccccc3)CC2)CC1` registered a z-score of 1.81. Compound `CCOP(=O)(OCC)C(O)c1ccc(OC)c(OC)c1` (configuration not stated) yielded a z-score of -0.178. Take `N=c1n(CCO)c2ccccc2n1Cc1ccccc1`: the z-score is -0.122. `OCCOCC#CCN1CCOCC1`: the z-score stood at 0.86.

The compound `c1cc2c(cc1CCNC1CCCCCC1)OCO2` gave a z-score of 0.232.

Take `CCN(CC)c1ccc(N=Cc2c(O)n(-c3ccc(Cl)cc3)c(=O)[nH]c2=O)cc1`: the z-score came to 0.126. With `CCCCn1c(O)c(C(CC)=NCCN2CCOCC2)c(=O)[nH]c1=O`, the z-score is 0.0562. Consider `CN1CCC(O)(c2ccccc2)C2CCCC21` (configuration not stated), for which the z-score is 0.541.

`COc1ccc(CC(=O)N2CCN(C)CC2)cc1OC` had a z-score of 0.142.

As to `CCC(C)(C)n1nnnc1C(c1cccs1)N1CC=C(c2ccc(F)cc2)CC1` (configuration not stated), the z-score came out at 0.138. `CC(=O)CC(C)(C)n1c[n+](C)nn1` showed a z-score of -0.0491. Under `Clc1ccc2c(c1)C(c1ccccc1Cl)=NCc1nnc(N3CCN(CCSc4ccccc4)CC3)n1-2` stands -0.487.

For `C=CCn1c(O)c(/C=C2/C=CC=N2)c(=O)[nH]c1=O`, the z-score was -0.219. Under `O=C(Cn1cnc2sc3c(c2c1=O)CCCC3)NCCCC(=O)N1CCC2(CC1)OCCO2` stands 0.113. On to `Cc1cccc(C)c1NC(=O)CN(C)CC(=O)Nc1ccc(C#N)c(Cl)c1`, for which the z-score is -0.248. `Cc1cc(C)cc(N2C(=O)NC(=O)/C(=C\C=C\c3ccco3)C2=O)c1` registered a z-score of -1.06. For the compound `OC(Cc1ccccc1)(c1ccccc1)C1CN2CCC1CC2` (configuration not stated), the z-score is 2. `O=P(C(Cl)Cl)(N1CCCCC1)N1CCCCC1`: the z-score stood at 0.344. With `CN(C)c1nc(OCCNC(=O)COc2ccc(Cl)cc2Cl)nc(N2CCCCC2)n1`, the z-score worked out at 1.08.

For `O=c1[nH]c(=S)n(CCC2=CCCCC2)c(O)c1C=NCc1cccnc1`, the z-score is 0.0432. Regarding `CCOC(=O)c1c(NC(NC(=O)CF)C(Cl)(Cl)Cl)sc2c1CCCC2` (configuration not stated), the z-score is -0.0969.

On to `CCOC(=O)C1=C(C)OC(N)=C(C(=O)OCC)[C@@]12C(=O)N(CC(N)=O)c1ccccc12`, for which the z-score is 0.472.

Take `O=C(O)c1cccc2c1NC(C(=O)O)C1CC(Sc3ccccc3[N+](=O)[O-])C(Cl)C21` (configuration not stated): the z-score is -0.939. The compound `CC12CN3CC(C)(CN(C1)C3c1cccs1)C2` (configuration not stated) had a z-score of -0.401. Regarding `O=c1c2ccccc2nc(CN2CCCCCC2)n1-c1ccc(F)cc1`, the z-score was 0.546. Compound `Cc1ccc(C(O)(C(=O)NNC(=O)CN2CCN(C)CC2)c2ccc(C)cc2)cc1` had a z-score of -0.00637.

With `CC(C)NS(=O)(=O)c1ccc(OCC(=O)N2CCN(Cc3ccccc3)CC2)c(Cl)c1`, the z-score came out at 0.201. The figure for `CCOC(=O)c1c(C)n(Cc2ccco2)c2ccc(O)cc12` is -0.0474; for `OC1(c2ccc(F)cc2)CCNC1` (configuration not stated) it is 0.138; for `O=c1[nH]c(=S)n(Cc2ccc(F)cc2)c(O)c1C=NCC1CCCO1` (configuration not stated) it is -0.258. Regarding `O=C(O)C1(c2ccc(Cl)cc2)CCC1`, the z-score is -0.279. With `C=CCOC(=O)COc1cc(C)cc2oc(=O)c3c(c12)CCC3`, the z-score is active: -4.07. On to `O=Cc1cn(Cc2cccc(F)c2)c2ccccc12`, for which the z-score was determined as 1.17. In turn, `COCCCn1c(N)c(C(=O)Nc2sc3c(c2C(=O)OC)CCCC3)c2nc3ccccc3nc21` had a z-score of -0.287.

The compound `CC/C(=C\C=C\[C@@H]1C=C[C@@H]2CCC[C@H]2[C@@H]1C(=O)c1ccc[nH]1)[C@@H]1O[C@@H]([C@@H](C)C(=O)O)CC[C@@H]1C` had a z-score of 1.6. In turn, `CN1CCN(c2cc(N3CCNCC3)ccc2[N+](=O)[O-])CC1` registered a z-score of -0.802. The figure for `O=C1NC(=O)C(Cc2cccs2)C(=O)N1` is 0.09. `CC1CC(C)CN(CC(=O)c2ccc(OC(F)F)cc2)C1` (configuration not stated): the z-score was -0.25. The figure for `N#Cc1c(Cl)nc(Cl)c2c1CCN(Cc1ccccc1)C2` is -0.608; for `Cc1cccc(N2C(=O)NC(=O)/C(=C\c3cnn(-c4ccccc4)c3)C2=O)c1` it is -0.3; for `COc1ccc2c(CCN)c[nH]c2c1` it is -0.139. Consider `O=C(CSC1c2ccccc2-c2ccccc21)N/N=C/c1ccccc1O`, for which the z-score was -0.226. The figure for `CC1(C)COC(Nc2ccc(Cl)cc2)=N1` is -0.195; for `CCOC(=O)C1=C(C)OC(N)=C(C(=O)OC)C12C(=O)Nc1ccc(Br)cc12` (configuration not stated) it is -0.318; for `CC(C)Cc1[nH]c(=O)c(C#N)c2c1CCC2` it is 1.1. As to `O=C(Nc1ccc2c(c1)OCO2)c1cn(Cc2ccc(F)cc2)nn1`, the z-score is -0.577. Under `CC(NCc1ccc(Cl)c(Cl)c1)C(O)c1ccccc1` (configuration not stated) stands 1.65; under `CC1CCN(C(=O)c2ccc(N3CC4CC(C3)c3cccc(=O)n3C4)c([N+](=O)[O-])c2)CC1` (configuration not stated), -0.501. Compound `Cc1cccc(C)c1NC1=NCCCS1` yielded a z-score of -1.27. For the compound `CN1CCN(C(=O)COc2ccc(S(=O)(=O)N(C)Cc3ccccc3)cc2)CC1`, the z-score came out at 0.392. `O=[N+]([O-])c1ccc(C2[C@H]3C(c4ccccc4)=NC4(CCCCC4)N23)cc1` (some centres not stated): the z-score is -0.0546. Turning to `COCCNC(=O)c1c(N)n(Cc2ccco2)c2nc3ccccc3nc12`, the z-score is -0.7. In turn, `CC(=O)Nc1ccccc1C(=O)OCC(=O)c1ccccc1Cl` gave a z-score of -0.431. Regarding `COC(=O)C1=C(N)Oc2c(c(=O)oc3ccccc23)C1c1cccnc1` (configuration not stated), the z-score was -2.14. Under `COc1ccc(N2C(=O)NC(=O)/C(=C/c3cccc(OC(=O)c4cccs4)c3)C2=O)cc1Cl` stands 1.22; under `Cc1ccc(C(=O)C2CN(C)CC2C(=O)c2ccc(C)cc2)cc1` (configuration not stated), -0.285. The figure for `CCNc1nc2[nH]c(=O)c3c(c2s1)OC(N)=C(C#N)C3c1cccs1` (configuration not stated) is 0.0259; for `O=c1[nH]c(=O)n(Cc2ccc(F)cc2)c(O)c1C=NCCCn1ccnc1` it is -0.632.

Compound `O=C(c1ccc(N2CC3CC(C2)c2cccc(=O)n2C3)c([N+](=O)[O-])c1)N1CCCCC1` (configuration not stated) came in with a z-score of -0.241. For the compound `Cc1ccccc1CS(=O)(=O)Cc1ccc(C(=O)N2CCC3(CC2)OCCO3)o1`, the z-score is 0.585. The compound `c1ccc2c(NC3=NCCS3)cccc2c1` showed a z-score of 0.731. As to `COc1cccc(NP(=O)(Oc2ccc(Cl)cc2)Oc2ccc(Cl)cc2)c1`, the z-score is -0.0426. Take `Fc1ccc2c(c1)nnn2C1CCN(Cc2c(Cl)cccc2Cl)CC1`: the z-score is -0.0433. For `O=C(/C=C/c1ccc2c(c1)OCO2)c1c(O)n(CCC2=CCCCC2)c(=O)[nH]c1=O`, the z-score is -0.285. Regarding `CCOP(=O)(OCC)C(NC(=O)c1ccccc1C)C(Cl)(Cl)Cl` (configuration not stated), the z-score came out at 0.173. Compound `O=C1C(c2ccccc2)=C(N2CC2)c2ccccc21` yielded a z-score of -1.21. The compound `CCOC(=O)c1c(C)n(Cc2ccco2)c2c1cc(O)c1ccccc12` gave a z-score of -0.278. Compound `O=c1[nH]c(=S)n(C2CC2)c(O)c1/C=N/Nc1cccc2ccccc12` came in with a z-score of -0.443. Turning to `C=CCn1c(O)c(C(C)=Nc2cc(OC)ccc2OC)c(=O)[nH]c1=O`, the z-score is 0.472. In turn, `CCOc1ccc(-n2c(O)c(C=Nc3ccc(N(CC)CC)cc3)c(=O)[nH]c2=O)cc1` yielded a z-score of -0.113. The compound `Cc1cccn2c(=O)c3c(nc12)N1CCc2ccccc2C1C1(C3)C(=O)NC(=O)N(C)C1=O` (configuration not stated) came in with a z-score of 0.0769. The compound `COc1ccccc1N1C(=O)NC(=O)C(CCc2ccncc2)(CCc2ccncc2)C1=O` returned a z-score of -0.189. The figure for `COc1ccc(Oc2cc(NC(=O)c3nn(C)cc3[N+](=O)[O-])cc([N+](=O)[O-])c2)cc1` is 0.113.

As to `COc1ccccc1N1C(=O)NC(=O)/C(=C/c2ccc3c4c(cccc24)CC3)C1=O`, the z-score was -0.188. `O=C(CN1C(=O)CN=C(c2ccccc2)c2ccccc21)NCc1ccco1` had a z-score of -0.206. Consider `C/C(=N\N1CCCCC1)c1c(O)[nH]c(=O)[nH]c1=O`, for which the z-score is -0.253. `N#CCCn1cc(C(=O)Nc2ccccc2Cl)c(-c2ccc([N+](=O)[O-])cc2)n1`: the z-score is -0.0927. Take `CC1C(c2cccs2)=[N+]([O-])C(C)(C(=O)c2ccc(Cl)cc2)N1O` (configuration not stated): the z-score is -0.0472. The figure for `CC[N+](CC)(CC)CCCOC(=O)C(O)(c1ccccc1)C1CCCCC1` (configuration not stated) is -0.382. On to `CCCNS(=O)(=O)c1ccc(OCC(=O)N2CCN(Cc3ccc4c(c3)OCO4)CC2)cc1`, for which the z-score is -0.266.

As to `Cc1cc(C)cc(NC(=S)NC2CC3CCCC(C2)N3Cc2cccs2)c1` (configuration not stated), the z-score is -0.0992.

As to `CSC1=NP(=S)(SC)N(C)c2nc3n(c21)CCC3` (configuration not stated), the z-score was -0.0735.

The compound `CC(=NCCN1CCCCC1)c1c(O)[nH]c(=O)[nH]c1=O` had a z-score of 0.977.

Consider `CC12CN3CC(C)(CN(C1)P3(=O)Oc1ccccc1)C2=O` (configuration not stated), for which the z-score came to 0.378.

`CC(=NCc1cccnc1)c1c(O)n(-c2ccc(C)cc2)c(=O)[nH]c1=O` had a z-score of -0.652. The compound `Cc1ccc(S(=O)(=O)NC(Cc2cnc[nH]2)C(=O)O)cc1` (configuration not stated) showed a z-score of -0.137. For the compound `C=CCn1c(O)c(/C=C/C=Nc2ccccc2)c(=O)[nH]c1=O`, the z-score is 0.36. For `CCC(=O)N1CC(=O)Nc2ccc(F)cc2C1c1ccccc1` (configuration not stated), the z-score is 0.0508. In turn, `CN(C)C(=O)NC(O)C(Cl)(Cl)Cl` (configuration not stated) came in with a z-score of 0.074.

`Cc1cc(N2CCCCC2)ccc1C=C1C(=O)N(C)C(=S)N(C)C1=O` registered a z-score of -0.258. Regarding `COC(=O)c1ccccc1-n1c(C)nc2ccccc2c1=O`, the z-score was -0.159. Compound `CCCCCCCSc1cc(OC)c(CCN(C)C)cc1OC` came in with a z-score of 0.395. Consider `Cc1cc(OCc2cc(C(=O)O)oc2C)c2c3c(c(=O)oc2c1)CCCC3`, for which the z-score is -1.35. Compound `COc1cc(C2SCC(=O)Nc3c2c(=O)[nH]n3C2CCCCCC2)cc(OC)c1OC` (configuration not stated) came in with a z-score of 1.01. In the case of `COc1ccccc1CN1CCN(C(=O)COc2ccccc2)CC1`, the z-score is -0.147. With `CN1CCN(c2ccc([N+](=O)[O-])c3cccnc23)CC1`, the z-score came to 0.358. `Cn1c(C(=O)N2CCC3(CC2)OCCO3)cc2c(=O)n(C)c3ccccc3c21`: the z-score is -0.00183. For the compound `Cc1cc(CN(C)C)c(OC(=O)N(C)C)cc1C`, the z-score is -0.351.

`CC(C)OC(=O)C1C(=O)NC2(C)CC1c1ccccc1O2` (configuration not stated) displayed a z-score of -0.285.

For `CCN(CC)c1ccc(CN(C)CCc2ccc(OC)c(OC)c2)cc1`, the z-score was -0.494.

The compound `CCCCn1c(O)c(C(CC)=Nc2ccc(OC)cc2OC)c(=O)[nH]c1=O` returned a z-score of -1.4. The compound `O=C1NC(=O)C(CCc2ccncc2)(Cc2ccc([N+](=O)[O-])cc2)C(=O)N1` returned a z-score of -0.19.
